Measurements: the supplement of paper PMC8291772
± gives the standard error. The list shows a part of the results.

These sequences were tested against terminal deoxynucleotidyl transferase (calf thymus) (UniProt P06526) (assay: TdT poly-dT extension signal (Cy3 hybridisation fluorescence, uncapped minus capped) (fluorescence a.u.); higher = more efficient initiation of TdT extension). Conditions: initiator chemistry: 2'-O-methyl-RNA, free 3'-OH (5'-tethered via HEG linker).
Method: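 All mono- to pentamer 2'-O-methyl-RNA initiators were made by photolithographic in situ synthesis (3'-NPPOC amidites, reverse direction, free 3'-OH) on glass on a hexaethylene glycol linker. Each was made in uncapped and DMTr-dT-capped versions, about 11 replicates each. Arrays were extended with calf thymus TdT (0.2 U/uL), 100 uM dTTP and 0.25 mM CoCl2 for 120 min at 37 C, hybridised with an rA18-Cy3 probe and scanned at 532 nm. The value is the mean uncapped minus the mean capped signal. IDs are written 3'->5' and are reversed to 5'->3'; all nucleotides are 2'-OMe.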

Chain of UniProt P06526 (P06526 whole entry): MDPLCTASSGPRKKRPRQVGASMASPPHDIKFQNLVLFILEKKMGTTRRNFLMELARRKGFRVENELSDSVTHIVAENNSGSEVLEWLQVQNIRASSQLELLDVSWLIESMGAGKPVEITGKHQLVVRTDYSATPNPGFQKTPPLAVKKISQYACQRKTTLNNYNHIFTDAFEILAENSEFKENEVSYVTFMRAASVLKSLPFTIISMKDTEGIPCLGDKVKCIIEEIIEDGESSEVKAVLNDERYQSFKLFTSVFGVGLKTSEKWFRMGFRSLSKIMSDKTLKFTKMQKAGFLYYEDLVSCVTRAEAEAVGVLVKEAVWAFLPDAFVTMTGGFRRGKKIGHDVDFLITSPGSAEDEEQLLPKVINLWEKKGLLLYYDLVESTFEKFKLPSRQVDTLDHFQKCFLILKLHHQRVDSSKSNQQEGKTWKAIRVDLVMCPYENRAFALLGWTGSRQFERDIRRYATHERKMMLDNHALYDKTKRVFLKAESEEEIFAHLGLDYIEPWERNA

| Sequence | TdT poly-dT extension signal |
| --- | --- |
| UGAG | 343 ± 23 |
| UGACA | 314 ± 31 |
| AGCGG | 334 ± 25 |
| AGCA | 471 ± 31 |
| GAACA | 413 ± 46 |
| UGUAC | 414 ± 27 |
| UUCAG | 435 ± 29 |
| UCGGC | 929 ± 62 |
| UUCGU | 500 ± 42 |
| GAUCU | 317 ± 34 |
| UAGG | 328 ± 22 |
| AAUCU | 240 ± 14 |
| AAAGU | 535 ± 51 |
| GCAA | 841 ± 41 |
| UCGGU | 469 ± 22 |
| GUAU | 321 ± 25 |
| AUAGC | 990 ± 77 |
| GUCCC | 475 ± 28 |
| AAUGG | 219 ± 18 |
| UCGCC | 549 ± 35 |
| UCUAA | 714 ± 36 |
| CUGU | 401 ± 31 |
| UAACG | 256 ± 23 |
| CAAAU | 657 ± 54 |

| Sequence | TdT poly-dT extension signal |
| --- | --- |
| AUUCG | 157 ± 20 |
| AGGUA | 416 ± 27 |
| CCUCC | 490 ± 49 |
| GCGGU | 476 ± 29 |
| AGCU | 275 ± 22 |
| AGGCG | 244 ± 16 |
| AUAGA | 663 ± 47 |
| AUGU | 356 ± 29 |
| UGCUG | 224 ± 16 |
| AGCUC | 545 ± 48 |
| CCCAA | 1040 ± 63 |
| UCUUC | 315 ± 25 |
| UGUGA | 362 ± 29 |
| UAACA | 312 ± 21 |
| UUCGA | 389 ± 32 |
| GUGGC | 1080 ± 140 |
| CAGU | 512 ± 30 |
| ACAUG | 260 ± 18 |
| CUUUA | 300 ± 25 |
| CUGAG | 425 ± 37 |
| GUAAA | 978 ± 120 |
| CACU | 394 ± 58 |
| GAGGG | 362 ± 32 |
| GAAU | 468 ± 32 |

| Sequence | TdT poly-dT extension signal |
| --- | --- |
| UGGUG | 177 ± 11 |
| ACAA | 1060 ± 140 |
| CCCUA | 590 ± 52 |
| CGAUU | 247 ± 18 |
| AUCC | 396 ± 50 |
| UUUGG | 185 ± 15 |
| ACCA | 460 ± 37 |
| UAUGC | 1010 ± 88 |
| CCCC | 515 ± 31 |
| UUUUC | 317 ± 18 |
| UCCCU | 281 ± 21 |
| GUUGC | 1090 ± 52 |
| UUGGG | 303 ± 27 |
| CUCUA | 507 ± 44 |
| ACGUG | 304 ± 19 |
| CACAA | 923 ± 85 |
| ACUU | 284 ± 26 |
| CCUG | 284 ± 17 |
| UCUUA | 366 ± 28 |
| CAAAG | 703 ± 58 |
| GCAAG | 622 ± 50 |
| GAGGA | 668 ± 89 |
| UGCC | 487 ± 38 |
| CCAGG | 421 ± 37 |

| Sequence | TdT poly-dT extension signal |
| --- | --- |
| GCUGU | 406 ± 28 |
| GGUCU | 285 ± 19 |
| AGUAG | 319 ± 25 |
| AACUU | 369 ± 22 |
| CUUGA | 474 ± 41 |
| UCAGC | 1040 ± 72 |
| ACACU | 363 ± 25 |
| GGUC | 489 ± 33 |
| ACCG | 284 ± 32 |
| GUCUA | 477 ± 45 |
| GAUAG | 308 ± 27 |
| AAGA | 792 ± 74 |
| UUUG | 122 ± 8.3 |
| GACAA | 959 ± 65 |
| GUUAA | 554 ± 23 |
| CUGAU | 432 ± 28 |
| GGCUU | 336 ± 21 |
| ACUUC | 383 ± 30 |
| GACGC | 1120 ± 110 |
| GAGUA | 535 ± 52 |
| AGAG | 491 ± 39 |
| UUGUA | 313 ± 19 |
| CACGA | 613 ± 27 |
| CCAGA | 833 ± 99 |

| Sequence | TdT poly-dT extension signal |
| --- | --- |
| UUCAC | 726 ± 84 |
| AGUU | 341 ± 23 |
| AAGCG | 306 ± 17 |
| GCCGU | 446 ± 20 |
| CGCGU | 494 ± 35 |
| UAUAU | 322 ± 24 |
| CAUUC | 359 ± 30 |
| UAAU | 422 ± 28 |
| ACUUG | 225 ± 15 |
| CCGC | 1130 ± 55 |
| GCCCC | 552 ± 28 |
| CAUCC | 487 ± 55 |
| GAUAA | 651 ± 58 |
| UCCUG | 243 ± 39 |
| ACCAA | 904 ± 52 |
| UGGA | 586 ± 52 |
| AUAA | 722 ± 81 |
| ACUCU | 323 ± 37 |
| CGGAU | 408 ± 37 |
| AUCGC | 1130 ± 62 |
| AUGCU | 347 ± 32 |
| CGCA | 449 ± 38 |
| AAGGC | 1170 ± 40 |
| AUAUC | 359 ± 44 |

| Sequence | TdT poly-dT extension signal |
| --- | --- |
| CAAUG | 254 ± 19 |
| UAGGU | 382 ± 32 |
| CUCC | 396 ± 35 |
| GUUUC | 374 ± 14 |
| GCCUA | 541 ± 50 |
| ACAGC | 998 ± 56 |
| GAUCA | 392 ± 33 |
| CGCCG | 324 ± 46 |
| GGGUU | 444 ± 48 |
| CCAC | 807 ± 63 |
| AACAA | 945 ± 62 |
| CGCAA | 873 ± 82 |
| UAUUA | 345 ± 19 |
| UGGAU | 446 ± 23 |
| UUCUC | 414 ± 38 |
| CUGCA | 344 ± 25 |
| GUAUA | 460 ± 36 |
| GUUCU | 282 ± 15 |
| AGUC | 483 ± 34 |
| GGGAC | 918 ± 67 |
| GUUA | 365 ± 27 |
| AGCCC | 548 ± 39 |
| CAGUG | 259 ± 24 |
| GGCGC | 903 ± 120 |

| Sequence | TdT poly-dT extension signal |
| --- | --- |
| CUCA | 445 ± 55 |
| UCAG | 482 ± 55 |
| AACGG | 350 ± 26 |
| GUUAU | 226 ± 26 |
| UAUGG | 158 ± 9.8 |
| GUGAG | 373 ± 34 |
| AAUGC | 1140 ± 77 |
| CUUUC | 305 ± 28 |
| AUUAG | 265 ± 27 |
| GUUCA | 318 ± 48 |
| UCCC | 510 ± 35 |
| CUCG | 250 ± 23 |
| CCAGC | 1240 ± 140 |
| AUGA | 370 ± 27 |
| ACCAC | 681 ± 58 |
| CGGUC | 520 ± 44 |
| UACGU | 440 ± 24 |
| AGCUA | 525 ± 35 |
| AAAG | 538 ± 32 |
| CAGGG | 361 ± 24 |
| CGGAA | 852 ± 50 |
| GUCGU | 482 ± 23 |
| CCUA | 528 ± 39 |
| GAUGC | 948 ± 49 |

| Sequence | TdT poly-dT extension signal |
| --- | --- |
| GAUUA | 366 ± 28 |
| CUCGU | 483 ± 44 |
| UACCC | 402 ± 50 |
| GACCG | 235 ± 18 |
| UAGUU | 301 ± 17 |
| CAGCU | 361 ± 26 |
| CUUAC | 422 ± 38 |
| UCACG | 290 ± 31 |
| CUCGA | 502 ± 48 |
| UAUAG | 326 ± 23 |
| UUGGU | 366 ± 24 |
| UAUGU | 312 ± 19 |
| UCAGG | 384 ± 36 |
| UCGCG | 302 ± 17 |
| UCUC | 456 ± 37 |
| AGAGC | 1140 ± 83 |
| GGCU | 351 ± 38 |
| CGAG | 465 ± 36 |
| AUUCC | 377 ± 21 |
| GUACU | 312 ± 20 |
| CUGGC | 1050 ± 57 |
| CCUGU | 408 ± 37 |
| CCGUU | 355 ± 61 |
| AUCAU | 449 ± 42 |

| Sequence | TdT poly-dT extension signal |
| --- | --- |
| UCCAC | 732 ± 54 |
| GACCA | 345 ± 31 |
| AAUCC | 457 ± 50 |
| CGUCG | 262 ± 33 |
| ACCGC | 1100 ± 130 |
| GACAU | 597 ± 84 |
| GGUAC | 494 ± 42 |
| UAAUC | 440 ± 29 |
| ACUAC | 413 ± 38 |
| CCUUG | 208 ± 20 |
| CUAUG | 217 ± 21 |
| AACG | 332 ± 49 |
| AGUAU | 328 ± 38 |
| GUCAC | 736 ± 91 |
| AAACC | 441 ± 32 |
| AUCUG | 236 ± 23 |
| GGAAA | 1010 ± 95 |
| UGCCU | 311 ± 27 |
| CCCAC | 818 ± 43 |
| UAUU | 267 ± 28 |
| CGGUG | 263 ± 29 |
| GGGGA | 632 ± 40 |
| UGAAU | 458 ± 37 |
